In paper PMC4336329 (PLoS ONE, 2015):
In all, about 310,000 compounds went through this assay and about 14,000 (4.5%) showed an effect of 50% or more. Effects have a minus sign here. Some of the results follow.

biological target: human ether-à-go-go-related gene (hERG) potassium channel (human, UniProt Q12809); assay: primary screen, population patch clamp on CHO cells stably expressing hERG
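Also: peak tail current of the secondary pulse compared with the same well before compound.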

Sequence of human ether-à-go-go-related gene (hERG) potassium channel (Q12809 whole entry, looked up): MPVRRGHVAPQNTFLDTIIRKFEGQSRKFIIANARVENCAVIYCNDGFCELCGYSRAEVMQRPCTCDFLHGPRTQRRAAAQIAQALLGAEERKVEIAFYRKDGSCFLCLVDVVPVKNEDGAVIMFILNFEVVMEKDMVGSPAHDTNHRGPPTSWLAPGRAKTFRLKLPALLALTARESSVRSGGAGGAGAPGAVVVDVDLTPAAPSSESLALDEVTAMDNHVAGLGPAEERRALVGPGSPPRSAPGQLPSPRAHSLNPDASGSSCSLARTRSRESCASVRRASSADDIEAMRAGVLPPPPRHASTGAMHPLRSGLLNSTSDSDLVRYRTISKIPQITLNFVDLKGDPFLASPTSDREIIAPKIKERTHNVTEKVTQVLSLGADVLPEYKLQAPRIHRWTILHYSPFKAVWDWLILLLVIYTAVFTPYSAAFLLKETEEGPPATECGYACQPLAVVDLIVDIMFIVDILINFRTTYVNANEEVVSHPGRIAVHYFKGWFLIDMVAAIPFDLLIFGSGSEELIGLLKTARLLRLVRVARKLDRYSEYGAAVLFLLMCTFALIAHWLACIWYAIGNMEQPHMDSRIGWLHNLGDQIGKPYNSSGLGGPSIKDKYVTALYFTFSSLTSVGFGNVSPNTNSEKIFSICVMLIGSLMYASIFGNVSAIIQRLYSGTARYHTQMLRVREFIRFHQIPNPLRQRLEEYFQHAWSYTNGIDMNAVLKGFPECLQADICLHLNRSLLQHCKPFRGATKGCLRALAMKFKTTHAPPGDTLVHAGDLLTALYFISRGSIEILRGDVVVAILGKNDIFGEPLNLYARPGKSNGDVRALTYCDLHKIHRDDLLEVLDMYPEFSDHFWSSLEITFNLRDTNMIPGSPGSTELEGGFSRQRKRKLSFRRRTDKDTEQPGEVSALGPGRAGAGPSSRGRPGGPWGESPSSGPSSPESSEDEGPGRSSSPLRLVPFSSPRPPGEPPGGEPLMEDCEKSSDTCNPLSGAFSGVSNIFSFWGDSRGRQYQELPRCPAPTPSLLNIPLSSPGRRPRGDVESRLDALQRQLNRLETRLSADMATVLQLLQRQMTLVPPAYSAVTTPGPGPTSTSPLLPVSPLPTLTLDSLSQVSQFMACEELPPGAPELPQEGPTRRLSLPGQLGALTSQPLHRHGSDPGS

Compound	hERG current change (%, negative = inhibition) at 10uM [%]
COC(=O)c1sccc1NC(=S)Nc1ccccc1	-5.93
CSc1ccccc1NC(=O)c1ccc(C)o1	-13.2
CCCCc1nc2cc(C(=O)N3CCCCC3CCO)ccc2o1 (stereo not shown)	10.1
O=C(Nc1ccccc1)/C(=C\c1ccccc1)NC(=O)c1ccco1	9.26
CC(=O)N/C(=C\c1cccc([N+](=O)[O-])c1)C(=O)NC(C)C	2.75
Cc1ccc(-c2csc3ncn(CC(=O)O)c(=O)c23)cc1C	11.8
Cc1ccc(S(=O)(=O)N2CCC(c3nnc(SCCN4CCCC4)n3C)CC2)cc1	17.7
CCOc1cc(C2c3c(oc4ccccc4c3=O)C(=O)N2c2nccs2)ccc1O (stereo not shown)	-4.25
Cc1cc(C(=O)OCC(=O)c2ccc(Br)s2)no1	0.238
COc1ccc(NC(=O)C2CCN(c3nc(C)nc4c3CCC4)CC2)cc1	-42.4
Cc1ccc(C)c(S(=O)(=O)N2CCN(Cc3cc4c(cc3O)OCO4)CC2)c1	3.4
Cc1ccc(NC(=O)CSc2nnc(N)s2)c([N+](=O)[O-])c1	15.6
Cc1ccc(C)c2c1[nH]c1ccccc12	6.67
COC(=O)c1oc2ccc(Br)cc2c1NC(=O)CCCN1C(=O)c2ccccc2C1=O	17.1
NC(=O)c1nsc(C(=O)N(CC(=O)NCc2ccccc2)c2cccc(F)c2)c1N	-12.4
C=CCn1c(SCC(=O)N2CCCC2)nc2scc(-c3cccs3)c2c1=O	-13.4
O=C(Nc1nnc(SCc2ccc(F)cc2)s1)C1Cc2ccccc2CN1C(=O)c1ccco1 (stereo not shown)	-6.55
CC(OC(=O)c1ccc2c(c1)OCCO2)C(=O)c1ccccc1 (stereo not shown)	4.44
CCOC(=O)C1=CC[C@H]2c3c(c4ccccc4n3C)C(=O)C1N2S(=O)(=O)c1ccc(C)cc1	-4.05
COCC(C)NC(=O)c1ccc2nc(-c3ccccc3)c(-c3ccccc3)nc2c1 (stereo not shown)	9.84
C[C@H](C(=O)CC(=O)OC(C)(C)C)[C@H](O)c1ccc(C(F)(F)F)cc1	8.11
COc1ccc(C(CC(=O)N2CCCC(C)C2)c2c(O)cc(OC)cc2OC)cc1 (stereo not shown)	7.15

Compound	hERG current change (%, negative = inhibition) at 10uM [%]
CC(C)CCN1C(Nc2ccccc2)=NC[C@@H]1Cc1ccccc1	-47.9
CC1CCCC(C)N1C(=O)c1cc(F)c(F)cc1Cl (stereo not shown)	16.1
Cc1cccc(NC(NC(=O)Cc2ccccc2)C(Cl)(Cl)Cl)c1 (stereo not shown)	4.08
Cc1nc2nc(CSc3ccc(Cl)cc3)cc(=O)n2[nH]1	9.76
COc1ccc(Cc2[nH]n3c(=O)cc(C(C)C)nc3c2-c2ccccc2)cc1	7.6
COc1ccc(NC(=O)C2CCCN2S(=O)(=O)c2ccc3c(c2)CCC(=O)N3)cc1 (stereo not shown)	-31.1
COC(=O)c1cc(NS(=O)(=O)c2cccc(Cl)c2)ccc1N1CCOCC1	2.66
Cc1cc(C)n(-c2ccc(F)cc2)c(=O)c1C(=O)O	-9.32
COc1ccc(CCNC(=O)C(CC(C)C)NC(N)=O)cc1 (stereo not shown)	9.22
CC(C)CCNC(=O)CCn1nc(-c2ccc(Cl)cc2)ccc1=O	-54.6
O=C(CSc1nc(-c2ccco2)cc(C(F)(F)F)n1)Nc1ccc(C(=O)N2CCCCC2)cc1	-27
COc1ccc(CN(CC2CCC(C(=O)O)CC2)C(=S)Nc2cccc(C)c2)cc1 (stereo not shown)	-2.44
COc1ccc(C(=O)N/N=C(\C)CC(=O)Nc2ccccn2)cc1OC	10.6
Cc1ccn(CCC(=O)N2CCCC(CCC(=O)NCc3ccc(F)c(F)c3)C2)n1 (stereo not shown)	4.14
COc1ccc(CC(=O)Nc2oc(-c3ccccc3)c(-c3ccccc3)c2C#N)cc1OC	10.7
CCc1cc(C(=O)OC)c(NC(=O)CCCC(=O)O)s1	17.6
CCOC(=O)C(C)(C)Sc1ncnc2nc[nH]c12	2.36
O=C(N/N=C/c1ccc(OC(=O)c2ccccc2)cc1)c1cccc(O)c1	15.4
NC(=O)c1cc2c3ccccc3ccn2c1-c1ccccc1	4.48
CCOC(=O)C(O)(c1ccc(NC(=O)c2ccc(Cl)c(Cl)c2)cc1)C(F)(F)F (stereo not shown)	-4.61
COc1cc(Br)cc2cc(C(=O)OC3CCN(C)CC3)c(=O)oc12	-10.1
